Out of some 52,000 compounds screened, about 1,700 (3.3%) were called active. No stated cut-off is given here; in the data, active means survival mostly below about 52% (no sharp cut-off); inactive means mostly above about 56%. The list shows a part of the results.
Test system: Wild type
Experiment: growth inhibition of S. aureus wild type versus tarO mutant, primary screen, teichoic acid synthesis inhibitors, RN4220, OD600 (AID 463173)
Settings: S. aureus RN4220 wild type/DeltatarO growth, OD600, 18 h, stronger effect = lower value, screened at 18.75 µg/mL (by protocol)

Row | SMILES | survival
1 | CCCN(C(=O)c1coc(=O)c2ccccc12)c1ccccc1C | inactive: 75%
2 | Cc1ccc(N2C(=O)CSC23C(=O)N(CC(=O)Nc2ccc(C(C)C)cc2)c2ccccc23)cc1C (stereo not drawn) | inactive: 80%
3 | CCOc1ccc(NC(=O)Cn2cc(C(=O)c3ccco3)c3ccccc32)cc1 | inactive: 50%
4 | CCOc1ccc(CCNC(=O)c2cc3c(-c4ccc(OC)c(OC)c4)nn(C)c3s2)cc1OCC | inactive: 83%
5 | COc1ccc(NC(=O)CSc2nc(NS(=O)(=O)c3ccccc3)cc(=O)[nH]2)cc1 | inactive: 114%
6 | CCn1c(=O)cc(OCC(=O)Nc2cc(Cl)c(OC)cc2OC)c2ccccc21 | inactive: 72%
7 | COc1ccc(-n2nc(C(=O)Nc3cccc(C)n3)c3c4ccccc4n(C)c3c2=O)cc1Cl | inactive: 79%
8 | O=C(Nc1cccnc1Cl)c1cc(-c2cccc(Cl)c2)on1 | inactive: 94%
9 | CCOc1ccc(CCNC(=O)CCc2cn(Cc3ccc(F)cc3)c3ccccc23)cc1 | inactive: 87%
10 | COc1cccc(NC(=O)C(Cc2ccccc2)NS(=O)(=O)c2ccc3c(c2)oc(=O)n3C)c1 (stereo not drawn) | inactive: 123%
11 | Cc1coc2cc3oc(=O)c(CC(=O)NCCc4ccccc4)c(C)c3cc12 | inactive: 85%
12 | Cc1ccc(C)c(CN2C(=O)c3ccccc3S(=O)(=O)c3ccc(C(=O)N4CCCCC4)cc32)c1 | inactive: 81%
13 | CC(C)n1c(=N)c(C(=O)NCc2ccccc2)cc2c(=O)n3ccccc3nc21 | inactive: 94%
14 | COc1cc(NC(=O)c2cc(S(=O)(=O)N3CCc4ccccc43)cn2C)cc(OC)c1OC | inactive: 82%
15 | CC(=O)c1cccc(NC(=O)c2noc3c2CCCC3)c1 | inactive: 136%
16 | CCc1ccccc1N(C)C(=O)c1cc2c(=O)oc3ccccc3c2s1 | inactive: 66%
17 | COc1ccc(OC)c(NC(=O)c2cnn(-c3ccc(C)cc3)c2C2CCNCC2)c1 | inactive: 101%
18 | CC(C)CC(=O)Nc1c(C(=O)N2CCN(c3ccccc3)CC2)oc2ccccc12 | inactive: 96%
19 | O=C(C1CCC1)N1CCc2cc(S(=O)(=O)NCc3ccc(F)cc3)ccc21 | inactive: 79%
20 | COc1ccc(C)cc1NC(=O)N1CCCn2nc(C)cc21 | inactive: 75%
21 | O=C(COc1ccccc1[N+](=O)[O-])N(Cc1ccco1)c1ccccn1 | inactive: 82%
22 | COc1cc2c(=O)n(CCc3ccccc3)c(=O)n(CC(=O)Nc3ccccc3)c2cc1OC | inactive: 120%

Row | SMILES | survival
23 | Cc1ccc(-c2c(C#N)c(SCC(=O)c3ccc(F)cc3)nc3c2CCCC3)o1 | inactive: 111%
24 | COc1ccc(OC)c(NC(=O)/C=C/c2ccc(C)o2)c1 | inactive: 65%
25 | CCOc1ccccc1NC(=O)Cn1c(=O)n(-c2cccc(C)c2)c(=O)c2c1c1cc(OC)ccc1n2C | inactive: 76%
26 | COC(=O)c1ccccc1NC(=O)N1CCc2c(sc3c2CCCC3)C1c1ccc(F)cc1 (stereo not drawn) | inactive: 128%
27 | O=C(COc1ccccc1)NC1CC(=O)N(c2ccc3c(c2)OCCO3)C1 (stereo not drawn) | inactive: 74%
28 | O=C(Cn1c(=O)n(CC2CCC(C(=O)NCCc3ccccc3)CC2)c(=O)c2ccccc21)Nc1cccc(F)c1 (stereo not drawn) | inactive: 94%
29 | COc1ccc(C2C=C(c3ccccc3)Nc3nc(NS(=O)(=O)c4ccc(Cl)cc4)nn32)cc1 (stereo not drawn) | active: 0%
30 | COc1ccc(C(=O)Cn2c(=O)c(-c3cc(C)ccc3NC(C)=O)nc3ccccc32)cc1 | inactive: 89%
31 | CC(=O)c1cc2c(cc1N/C(=N/S(=O)(=O)c1ccc(Br)cc1)c1ccccc1)OCO2 | inactive: 69%
32 | Cc1ccccc1Cn1c(CN2CCCC(C)C2)nc2c1c(=O)n(C)c(=O)n2C (stereo not drawn) | inactive: 81%
33 | O=C(Nc1ccc(S(=O)(=O)Nc2cccc(C(F)(F)F)c2)cc1)c1ccco1 | inactive: 114%
34 | CCOc1ccc(C(=O)c2cn(CC(=O)Nc3ccc(Cl)cc3)c3cc4c(cc3c2=O)OCCO4)cc1 | inactive: 143%
35 | CCc1cccc(C)c1NC(=O)c1cccc(C(=O)Nc2c(C)cccc2CC)c1 | inactive: 78%
36 | Cc1ccc(C)c(N2CCN(C(=O)c3noc4c3CCCCC4)CC2)c1 | inactive: 124%
37 | O=C(O)c1ccc2nccnc2c1 | inactive: 110%
38 | CCOc1ccc(C(=O)c2cn(CC(=O)Nc3ccc(F)c(F)c3)c3cc4c(cc3c2=O)OCCO4)cc1 | inactive: 126%
39 | CCS/C(=C(\C#N)C(N)=O)c1ccc(-c2ccccc2)[nH]1 | inactive: 114%
40 | COc1cccc(NC(=O)CCc2nc(-c3cccs3)no2)c1 | inactive: 70%
41 | CSc1ncc(Cl)c(C(=O)Nc2c(C(=O)c3ccc(C)c(F)c3)oc3ccccc23)n1 | inactive: 88%
42 | CCC1CCCCN1C(=O)c1cc(Cl)ccc1OC (stereo not drawn) | inactive: 112%
43 | CCOc1ccc(C2C(=O)N(C3CCCCC3)CC(=O)N2CCC2=CCCCC2)cc1OC (stereo not drawn) | inactive: 112%
44 | Cn1c(=O)c(C2=NS(=O)(=O)c3ccccc3N2)c(O)c2ccccc21 | inactive: 107%

Row | SMILES | survival
45 | Cc1cc2[nH]c(=O)c(=O)[nH]c2cc1S(=O)(=O)Nc1ccc(OC(F)(F)F)cc1 | inactive: 60%
46 | COc1cccc(CNC(=O)C(Cc2ccccc2)NS(=O)(=O)c2ccc3c(c2)oc(=O)n3C)c1 (stereo not drawn) | inactive: 84%
47 | Cc1cccc(OC(=O)c2cc(-c3ccc4c(c3)OCCO4)on2)c1C | active: -6%
48 | Cc1cccc(NC(=O)c2ccc3nc(CCc4ccccc4)oc3c2)c1C | inactive: 88%
49 | Cc1cccc(N2CCN(c3ccc(NC(=O)c4ccccc4)cc3C(=O)O)CC2C)c1 (stereo not drawn) | inactive: 55%
50 | Cc1ncc(CO)c2c1Oc1nc(-c3ccc(F)cc3)nc(SCc3ccc(F)cc3Cl)c1C2 | inactive: 89%
51 | O=C(NCc1ccc(F)cc1)c1ccc2c(c1)nc1n2CCCCC1 | inactive: 89%
52 | CCOc1ccccc1C(=O)Nc1ccc2nc3c(c(Nc4ccc(OC)c(OC)c4)c2c1)CCCC3 | inactive: 73%
53 | CCOC(=O)c1ccc(NC(=O)CN2Cc3ccccc3C2=O)cc1 | inactive: 83%
54 | COc1ccccc1C(=O)Nc1onc2c1CCCC2 | inactive: 70%
55 | Cc1cc(Nc2cccc(Cl)c2)nc2ccc(NC(=O)c3cccc(N(C)C)c3)cc12 | inactive: 124%
56 | CCCS(=O)(=O)N1CCC(N2CCN(Cc3ccc(F)cc3)C(=O)C2=O)CC1 | inactive: 72%
57 | Cc1cc(O)c2c(C)c(CC(=O)N3CCCCC3)c(=O)oc2c1 | inactive: 90%
58 | COc1ccc(-c2noc(-c3nnn(-c4ccc(C(C)C)cc4)c3C)n2)cc1OC | inactive: 76%
59 | Cc1ccc(-c2ccc(C#N)c(=O)n2CC(=O)N2CCNC(=O)C2(C)C)cc1 | inactive: 117%
60 | O=C(Nc1ccccc1)c1ccc2c(O)c(S(=O)(=O)c3ccc(Cl)cc3)c(=O)[nH]c2c1 | inactive: 96%
61 | O=C(CSc1ncccn1)n1c2c(c3ccccc31)CCCC2 | inactive: 112%
62 | CCOc1ccccc1C1C(C(=O)Nc2ccccc2)=C(C)Nc2c(C(=O)Nc3ccc(F)cc3)cnn21 (stereo not drawn) | inactive: 77%
63 | CCn1cc(C(=O)N2CCN(c3ccc(OC)cc3)CC2)c2cc(OC)c(OC)cc2c1=O | inactive: 69%
64 | Cc1ccccc1Cn1c2ccccc2c2cnn(CC(=O)N3CCC(C)CC3)c(=O)c21 | active: 12%
65 | Cc1ccc(S(=O)(=O)NCC(Nc2cccc(Cl)c2)c2ccccc2)cc1 (stereo not drawn) | inactive: 68%
66 | CCOc1ccc(NC(=O)C2CC(=O)NC(=Nc3ccccc3)S2)cc1 (stereo not drawn) | inactive: 104%

Row | SMILES | survival
67 | CCOc1ccc(-c2cccc(NS(=O)(=O)c3ccccc3C(F)(F)F)c2)nn1 | inactive: 90%
68 | O=S(=O)(c1ccc2nc(Nc3cccc(F)c3)ccc2c1)N1CCCC1 | inactive: 75%
69 | CCc1ccc(NC(=O)N2CCC(N3CCN(Cc4ccc(C)cc4)C(=O)C3=O)CC2)cc1 | inactive: 135%
70 | CCn1c(CNC(=O)C(OC)c2ccccc2)nnc1SC (stereo not drawn) | inactive: 125%
71 | CCn1c(C(=O)N2CCCC(C(=O)N3CCN(c4ccccc4)CC3)C2)cc2sccc21 (stereo not drawn) | inactive: 82%
72 | COc1ccc(-c2cc3nccc(-c4cc(Cl)c(C)cc4O)n3n2)cc1 | inactive: 82%
73 | CC(C)(C#N)Nc1ccccc1 | inactive: 105%
74 | Cc1nn(CC(=O)NCCc2ccccc2)c(=O)c2c1sc1ccccc12 | inactive: 84%
75 | Clc1nc(Cl)nc(N2CCCCC2)n1 | inactive: 101%
76 | CCOc1ccccc1NC(=O)CSC1=Nc2ccccc2C2=NC(CC(=O)NCc3ccc4c(c3)OCO4)C(=O)N12 (stereo not drawn) | inactive: 123%
77 | O=c1cc(-c2ccccc2)n2c(SCc3ccc(Br)cc3)nnc2[nH]1 | inactive: 126%
78 | COc1ccccc1CN1C(=O)C(=O)c2cccc(C)c21 | inactive: 107%
79 | CCN(C(=O)Cc1ccccc1OC)c1nnc(-c2ccncc2)s1 | inactive: 111%
80 | COc1ccc(-n2ccnc(NCCc3ccc(Cl)cc3)c2=O)cc1OC | inactive: 47%
81 | CCCCSCCCNC(=O)c1c[nH]c2ccc(S(=O)(=O)Nc3cccc(OC)c3)cc2c1=O | inactive: 72%
82 | Cc1cc2nc(N(Cc3cccnc3)C(=O)c3ccc(Cl)s3)sc2cc1C | active: 0%
83 | Cc1ccc(S(=O)(=O)NCC(c2ccc(N(C)C)cc2)N2CCc3ccccc32)cc1 (stereo not drawn) | active: -2%
84 | CCC(C)NC(=O)Cn1c(=O)n(-c2ccc(C)c(C)c2)c(=O)c2c(C)c(C(=O)N(CC)CC)sc21 (stereo not drawn) | inactive: 66%
85 | CC(=O)N1c2ccc(S(=O)(=O)N(C)CC(=O)N(Cc3ccccc3)C(C)C)cc2CC1C (stereo not drawn) | inactive: 91%
86 | CC(C)(C)c1ccc(C(=O)N2CCN(CCc3ccccn3)CC2)cc1 | inactive: 82%
87 | O=C(Cc1ccccc1)Nc1nnc2n1CCS2 | inactive: 83%
88 | CCN(Cc1ccccc1)Cc1c(O)ccc2oc(C)c(C(=O)Nc3ccccc3C)c12 | inactive: 78%

Source: PubChem BioAssay AID463173 (ICCB-Longwood Screening Facility, Harvard Medical School, 2010)
